# Source: the supplement of paper PMC3334620
# The full ranking holds about 33,000 sequences; the median of “E-score (-0.5 to 0.5)” is about -0.012, and the highest 2% start at about 0.27. The list shows a part of the results.
# Target: T1, Vhr1 (UniProt P40522)
# T1 sequence: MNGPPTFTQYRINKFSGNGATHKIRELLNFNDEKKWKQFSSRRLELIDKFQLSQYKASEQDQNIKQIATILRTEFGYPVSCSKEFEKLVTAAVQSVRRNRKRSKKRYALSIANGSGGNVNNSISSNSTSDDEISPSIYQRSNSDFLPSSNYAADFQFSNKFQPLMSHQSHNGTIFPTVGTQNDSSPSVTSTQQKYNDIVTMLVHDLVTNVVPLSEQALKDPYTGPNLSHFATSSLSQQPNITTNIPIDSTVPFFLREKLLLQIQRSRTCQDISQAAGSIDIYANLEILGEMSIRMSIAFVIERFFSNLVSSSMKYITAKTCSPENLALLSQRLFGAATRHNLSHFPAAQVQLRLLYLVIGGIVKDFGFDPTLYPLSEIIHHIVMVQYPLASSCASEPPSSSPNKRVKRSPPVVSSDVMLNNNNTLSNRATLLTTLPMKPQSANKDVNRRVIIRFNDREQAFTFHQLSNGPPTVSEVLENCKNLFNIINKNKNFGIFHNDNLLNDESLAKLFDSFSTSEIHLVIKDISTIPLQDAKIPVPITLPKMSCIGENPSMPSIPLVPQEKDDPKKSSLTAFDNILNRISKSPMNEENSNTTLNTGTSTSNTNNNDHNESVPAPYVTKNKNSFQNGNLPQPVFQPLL
# Assay: PBM E-score (8-mer binding enrichment) (E-score (-0.5 to 0.5)); higher = stronger / more preferred TF binding; most listed sequences are background and not binding sites
# Details: protein concentration: 200 nM; construct: GST-full length
# Summary of the method: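 GST-tagged yeast TFs (full-length or DNA-binding domain) were made by PURExpress in vitro transcription/translation and applied at about 100-200 nM to universal all-10-mer Agilent arrays. The arrays were made double-stranded by primer extension, on fresh or once-stripped slides. Bound protein was detected with fluorescent anti-GST, and scans were normalised with masliner. Each ungapped eight-base word, pooled with its reverse complement, received an E-score (modified Wilcoxon-Mann-Whitney statistic) from the Universal PBM Analysis Suite.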
row,Sequence,PBM E-score
1,CTTTGTGC,-0.135
2,TCCACTCA,0.0869
3,GTGTGCGA,0.0262
4,CGGTCGAC,0.0782
5,GTTGAGGA,-0.0691
6,AAAATAAA,-0.0137
7,AAATATCA,0.0762
8,CCCGATAC,-0.126
9,GTGCCAAA,-0.169
10,AAGTTACC,-0.0533
11,CCGGCCCA,-0.176
12,CTACGAAC,-0.14
13,ATACAGAT,0.0906
14,ACTAGTCA,0.292
15,CTCGCATA,0.0425
16,AAGGGTTG,-0.00859
17,ATGGTCTA,0.0648
18,CCAATAGG,0.0241
19,CTATTAGA,-0.0674
20,GAAACGTC,-0.106
21,TCTGAACA,0.08
22,TATTGAGA,0.212
23,CCTTTAAG,-0.184
24,ACCGGCGG,0.0503
25,CTAGGTGC,-0.103

row,Sequence,PBM E-score
1,CGGCCGAC,0.00644
2,ACAGAGAA,0.0745
3,ACTGGCGG,0.0925
4,GTAAGTCA,0.251
5,CGACCGGA,0.0017
6,GTGGAAGA,-0.12
7,ACTTCCCA,-0.16
8,GCATCAAC,0.11
9,AAAATTTA,-0.245
10,CCTGTAAG,-0.201
11,CGAAAAAG,-0.0396
12,ACGCCCGA,-0.0585
13,ACCAAAAG,-0.177
14,AATGCAGC,-0.194
15,GGGGCATA,-0.221
16,CCGGATAG,-0.111
17,CCAGTAAA,-0.146
18,AGTATTCA,0.0385
19,TCATCCCA,0.171
20,GACTCTAA,0.243
21,ACCGAGTG,0.13
22,TCATAAGA,-0.0578
23,CGCGGTAC,0.0942
24,TACATCCA,0.0343
25,AGGCTGCG,0.0726

row,Sequence,PBM E-score
1,CCTGGGCC,-0.028
2,TAATTTCA,-0.0403
3,ACCAATGC,0.142
4,CCATCCGG,-0.00918
5,CGATATAA,-0.117
6,AGAATTGG,-0.0668
7,CCGGAAAA,-0.17
8,AATTTGGA,-0.28
9,CAAAGTAA,0.0679
10,ACTTCAAA,-0.232
11,ACCCTTCG,-0.0293
12,AACGATTC,0.0261
13,ACTTTCGG,-0.195
14,CAAGTCGG,-0.0435
15,GTAGGCAC,-0.144
16,CTACACAG,0.121
17,ACTTCCAA,-0.134
18,ATGCACAT,0.0847
19,ATTTGTCA,-0.0927
20,ATGTAAGA,0.0564
21,ACACGACG,-0.0012
22,AATCAAGT,0.174
23,AACTATGT,-0.0326
24,ACTAGAAT,0.0919
25,CCGGGGAG,0.0567

row,Sequence,PBM E-score
1,ACCAGGGA,-0.199
2,AGCATTTG,-0.202
3,AAAGAAGG,-0.247
4,GCGAAAGC,-0.0792
5,AGTACAGG,0.0326
6,ATAATGTC,0.0696
7,CCGTAACA,-0.105
8,CGGCTGGC,0.104
9,CACTCATA,0.179
10,CGATGCCA,-0.127
11,AATTGTTG,-0.132
12,GATAAAGA,-0.166
13,ACAGATTG,0.083
14,AAGGGCTC,-0.218
15,ACCACCTG,0.192
16,GCAGTCAC,0.353
17,CAAACCGC,0.017
18,ACGCGCAA,0.0839
19,ATGAGGCA,-0.27
20,GACGTTGC,0.0331
21,ATATGCGC,0.222
22,ATATCATA,0.216
23,AGGTACCC,-0.0665
24,CTTATAGC,-0.185
25,CATCCAAC,0.0877

row,Sequence,PBM E-score
1,GCAGTCGC,0.243
2,ATAGGGGA,-0.0258
3,GGCCGTGA,0.14
4,CGGCACCG,-0.0364
5,AATGCCGC,-0.0379
6,CACGACTC,0.378
7,GAACAACC,0.0146
8,CAATGCTC,-0.0728
9,ATTGTAAG,-0.0489
10,CAAACTTG,-0.0996
11,CATAGTAG,0.185
12,CTATGAGC,0.0885
13,AAGTCCCC,-0.297
14,AACCCGGG,0.0339
15,GAGGGTGA,0.153
16,TAGCTAGA,-0.119
17,AAGTACGG,0.0448
18,ATGACGAA,0.0557
19,CTACCAGC,0.0362
20,ACTCGGAC,0.226
21,CAGAGGGC,-0.146
22,ACTACAGG,0.12
23,AGTTTGAG,-0.0721
24,AGTATGAA,0.203
25,AGACTGCC,0.0225

row,Sequence,PBM E-score
1,CACCACCG,-0.0621
2,ACTAAGCT,0.0352
3,AGAAGCGG,-0.112
4,CCGTGGGC,-0.0369
5,AGCCAGTC,0.087
6,GCTCAGAC,0.0657
7,AACCCGTT,-0.0686
8,ACTCGAGT,0.26
9,CACCCAGC,0.0906
10,AGAATGAA,-0.0879
11,TAGTTGGA,0.0597
12,TCGGCTAA,-0.0416
13,AGACGGTA,-0.0722
14,GAAGCTCA,-0.0795
15,CGCCTCCC,-0.122
16,AGGCAGCC,-0.0232
17,AAAACGGG,0.0915
18,AATTGGGG,-0.139
19,TACACCGA,0.0677
20,ATATGCCA,0.168
21,AACCCGGT,-0.139
22,GAAAAGGC,-0.102
23,AACACATA,0.176
24,GTGCCTGA,-0.0567
25,TCAACAAA,0.144

row,Sequence,PBM E-score
1,ACGCGCAC,0.0131
2,GAAGAGCA,-0.26
3,CAAGAGCA,-0.0749
4,ATCCACCA,0.113
5,CCACGCAA,-0.0453
6,CTTGCTTA,-0.0134
7,CCACCGAC,0.165
8,AAAGAGAT,-0.169
9,TACAGATA,0.0424
10,AATCCTGC,0.00501
11,ACAACGGT,-0.0617
12,ACACGGTA,0.179
13,AAACGATG,-0.0491
14,TAGCTGCA,-0.18
15,ATATGGGC,0.0692
16,GCCTGAGA,-0.0729
17,AAGAACTC,-0.123
18,ATGTCATG,0.12
19,GCAAGCAC,-0.0739
20,TATACACA,0.155
21,CGAGACCA,0.0338
22,CGTCACAA,-0.0394
